Some of the results follow.

The assay has as its target T1, OsWOX13 (Oryza sativa, UniProt Q5QMM3 1-267).
T1 sequence: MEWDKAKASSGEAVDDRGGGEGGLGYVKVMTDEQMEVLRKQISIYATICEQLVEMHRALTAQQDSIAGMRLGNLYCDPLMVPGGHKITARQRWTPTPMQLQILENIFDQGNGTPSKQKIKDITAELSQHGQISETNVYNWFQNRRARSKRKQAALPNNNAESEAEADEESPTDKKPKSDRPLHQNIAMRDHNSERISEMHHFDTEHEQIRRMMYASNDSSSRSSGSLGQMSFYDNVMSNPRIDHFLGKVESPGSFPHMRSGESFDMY
Put plainly: protein-binding microarray (RPBM); PBS, 2% BSA, 51.3 ng/ul salmon testes DNA, 50 uM zinc acetate, 200 nM TF, 25 C, 1 h; high values mean tight binding. Conditions: protein: recombinant; tags: N-terminal polyhistidine and DsRed monomer fusion (pET32a); label: CyDye5-dUTP incorporated in the synthesized complementary strand; 3' TTTTT single-stranded linker to array surface; dsDNA, one strand shown. An outline of the steps: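 Binding signal here means per-feature fluorescence intensity in arbitrary units. The values were read on an Axon 4000B scanner after a custom Agilent array, double-stranded by primer extension with Cy5-dUTP, was incubated with 200 nM protein at 25 °C for 1 h in PBS with 2% BSA, salmon testes DNA and 50 µM zinc acetate, then washed. The proteins were transcription factors with an N-terminal polyhistidine tag and DsRed, expressed in E. coli BL21-CodonPlus and purified on Ni–NTA.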
On to “TAATACTTAATTAATTATATGCTAAATGCTTCTTCGTTTTCGGAGTCACCTAGTGCAG”, for which the binding signal is 27300 fluorescence intensity (a.u.).

For the sequence “TTTATAATAGTTAATATTTAATTGATCATTTGCTAATGAGCGGAGTCACCTAGTGCAG”, the binding signal is 24900 fluorescence intensity (a.u.).

On to “TACACTGATTAGTGGATGATGATATAGTATCTTTGTATGTCGGAGTCACCTAGTGCAG”, for which the binding signal was 45600 fluorescence intensity (a.u.).

Turning to “TCCAGTCCAATCAGCCCACCATAATTTGGGCCGGAATAAGCGGAGTCACCTAGTGCAG”, the binding signal was 17600 fluorescence intensity (a.u.).

For the sequence “ATATGTGATGGGCAATAAAGTTACTTTGACGATGGTATGCCGGAGTCACCTAGTGCAG”, the binding signal was 7840 fluorescence intensity (a.u.).

With “TTGGTAATTTTCGACTGATACTGCTCTTATTATATTCGTTCGGAGTCACCTAGTGCAG”, the binding signal was 5090 fluorescence intensity (a.u.).

In the case of “CCCTTTACTTGATTTTCTGCTGGTTGGTTTATCTTTTATTCGGAGTCACCTAGTGCAG”, the binding signal was 6590 fluorescence intensity (a.u.).

In the case of “CCCGACGTTGTTGATTGCTTATCCCACTTGTGCTATTTGCCGGAGTCACCTAGTGCAG”, the binding signal is 18600 fluorescence intensity (a.u.).

“CATGATTTTGAATGCATAACCTAAACATATAGCAAACCAGCGGAGTCACCTAGTGCAG”: the binding signal was 17100 fluorescence intensity (a.u.).

Turning to “ACGCCGAAAATCACTGTCATAATTAATTTGAGAACTAGAACGGAGTCACCTAGTGCAG”, the binding signal is 18500 fluorescence intensity (a.u.).

For “CCAATAAAATTTCTATTAAACTGAGAGAAATGCTACCCTTCGGAGTCACCTAGTGCAG”, the binding signal was 3510 fluorescence intensity (a.u.).

Take “TTCAAATGGAGAACTGACGAACTTGTAATATGACGTCAGTCGGAGTCACCTAGTGCAG”: the binding signal is 4330 fluorescence intensity (a.u.).

With “CTGATTGGAAATATTTTGAAATTAACTACACACAAAATAACGGAGTCACCTAGTGCAG”, the binding signal was 9930 fluorescence intensity (a.u.).

Consider “ACCAATCACAGGCCACAGCCGGCGCCGTCGCCTTCCTTCTCGGAGTCACCTAGTGCAG”, for which the binding signal is 3920 fluorescence intensity (a.u.).

For the sequence “ATATTTCGTCAAGTTAAATTTGAGTGAGAACAAAATCCAACGGAGTCACCTAGTGCAG”, the binding signal was 3410 fluorescence intensity (a.u.).

In the case of “CTCTTAATTTAGGGGTGGCTCATCATCTCTCTCCTCACTTCGGAGTCACCTAGTGCAG”, the binding signal was 12400 fluorescence intensity (a.u.).

Regarding “GCCGCCAAATCAAATGTGGATGATTGAAATAGCCGTGGTACGGAGTCACCTAGTGCAG”, the binding signal was 32500 fluorescence intensity (a.u.).

As for “CCGATATGATTTTAGGTCCCCGCCCAAGTGCACATATATGCGGAGTCACCTAGTGCAG”, the binding signal was 3190 fluorescence intensity (a.u.).

Turning to “ATTGTAATTAATACATGACTACATATGTTTCTATATGCATCGGAGTCACCTAGTGCAG”, the binding signal is 28200 fluorescence intensity (a.u.).

As for “TAATATTATATTTAATTTGCATTATTTTAAATATAGTACCCGGAGTCACCTAGTGCAG”, the binding signal was 3730 fluorescence intensity (a.u.).

Consider “TAATTAATAATCTAGTTAATTAGCCGTCTCCGGAACAAATCGGAGTCACCTAGTGCAG”, for which the binding signal is 13300 fluorescence intensity (a.u.).

In the case of “CTTTAATTTCTTCTTCTTTTCCACATATAATAATAATATACGGAGTCACCTAGTGCAG”, the binding signal was 4030 fluorescence intensity (a.u.).

As to “GCAAGATTGGACGGTCCAGATCTCTAAAGTACGTCAGCACCGGAGTCACCTAGTGCAG”, the binding signal is 20500 fluorescence intensity (a.u.).

With “GAGGTAAATTTGATCAGGCATCTTCTTGCATTGGTAGCAACGGAGTCACCTAGTGCAG”, the binding signal is 7700 fluorescence intensity (a.u.).

For the sequence “CAGAAATTGTTTTCATTTATTTTATTGTCTTTATATGACTCGGAGTCACCTAGTGCAG”, the binding signal was 11300 fluorescence intensity (a.u.).

“ATATCAATCCGATGATATTAATTTTAGCAAATAAAATTTACGGAGTCACCTAGTGCAG”: the binding signal was 5130 fluorescence intensity (a.u.).

Consider “ACTAATGATGGATTAATTAGGCTTAATATATTCATCTCGCCGGAGTCACCTAGTGCAG”, for which the binding signal was 58100 fluorescence intensity (a.u.).

As for “GTAAGTTACAGTAATTACATTATGATTGTACTATAATTACCGGAGTCACCTAGTGCAG”, the binding signal is 25900 fluorescence intensity (a.u.).

“ATAGATTTAACACTAAATTTATCACAAAACTACAAATTTACGGAGTCACCTAGTGCAG”: the binding signal was 7720 fluorescence intensity (a.u.).

For “CCTATATTTATATTGATGTTAATGAATCTAGACATATATACGGAGTCACCTAGTGCAG”, the binding signal was 3560 fluorescence intensity (a.u.).

With “TAATAATTGGTCGTGAAATTCTCAAAAGTTTTGCTCATAGCGGAGTCACCTAGTGCAG”, the binding signal is 11600 fluorescence intensity (a.u.).

In the case of “ATTAATTTCGCTTGCTAACACGAGTTTAATCTGCCAATTTCGGAGTCACCTAGTGCAG”, the binding signal is 4020 fluorescence intensity (a.u.).

Regarding “GTACCACTTGATTTGTGTCTAGTGTAAATCGCATTAGCCACGGAGTCACCTAGTGCAG”, the binding signal is 14700 fluorescence intensity (a.u.).

Consider “CTAATTGGTTGGGTGGTTTTAGCTAGGGGATGCCTAAACGCGGAGTCACCTAGTGCAG”, for which the binding signal is 22600 fluorescence intensity (a.u.).

As for “GTAACAGAAACAGATTGGTACGACTACGACGCCCTGTACCCGGAGTCACCTAGTGCAG”, the binding signal is 33400 fluorescence intensity (a.u.).

Regarding “ATATTGAATGATTAGGGAATTTAGGCTATATATTGAAGCCCGGAGTCACCTAGTGCAG”, the binding signal was 40200 fluorescence intensity (a.u.).

With “TGACTAAATTGCCCCTGAAGCATTTTCATCTCTGCTCCTCCGGAGTCACCTAGTGCAG”, the binding signal is 8630 fluorescence intensity (a.u.).

Consider “CGTGATCGATCGATCGGTTGATTGATTGCTCAGGGCCCAACGGAGTCACCTAGTGCAG”, for which the binding signal was 42400 fluorescence intensity (a.u.).

For “AGATATTGATGATTTGTTGTTGGGCTCGGGCGCTCAGCCACGGAGTCACCTAGTGCAG”, the binding signal was 20200 fluorescence intensity (a.u.).

Regarding “ATGATTGAATAGAAAAGAGAGTGAGAGAAGAGAGTTTAATCGGAGTCACCTAGTGCAG”, the binding signal was 14700 fluorescence intensity (a.u.).

In the case of “AGGTTGACAGGAGAGAGGAGGCGGCGCGGGCGAGGGAGCTCGGAGTCACCTAGTGCAG”, the binding signal is 7270 fluorescence intensity (a.u.).

As to “ATATAATTATGTTCCAAGTGGCATTACGATGGTTCTTTTCCGGAGTCACCTAGTGCAG”, the binding signal was 16700 fluorescence intensity (a.u.).
